# The supplement of paper PMC8728848
# The list shows a part of the results.
# Columns and labels:
# Experiment in all cases: glycan array binding signal (z-score within array); higher = stronger binding
# Conditions in all cases: glycan notation: IUPAC condensed, linker removed
# Glc(a1-6)Glc(a1-6)Glc = target: Glc(a1-6)Glc(a1-6)Glc
# Procedure, shortened: (§1)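 Glycan array data were curated from 3228 arrays in the Consortium for Functional Glycomics database and kept only where the protein sequence was available. Glycan names were converted to IUPAC-condensed notation, and columns mapping to the same glycan were averaged. The binding signal is a within-array Z-score, averaged across arrays of the same protein sequence at different concentrations or buffers and across linkers. Negative Z-scores can be read as non-binding.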
# Glc(b1-4)Glc = target: Glc(b1-4)Glc
# Procedure, shortened: as §1
# Glc(b1-6)Glc = target: Glc(b1-6)Glc
# Procedure, shortened: as §1
# GlcA(b1-3)Gal = target: GlcA(b1-3)Gal
# Procedure, shortened: as §1
# GlcA(b1-6)Gal = target: GlcA(b1-6)Gal
# Procedure, shortened: as §1
# [1] = target: GlcNAc(a1-3)Gal(b1-4)GlcNAc
# Procedure, shortened: as §1
# [2] = target: GlcNAc(a1-6)Gal(b1-4)GlcNAc
# Procedure, shortened: as §1
# [3] = target: GlcNAc(b1-2)Gal(b1-3)GlcNAc
# Procedure, shortened: as §1
# [4] = target: GlcNAc(b1-2)Man(a1-3)[GlcNAc(b1-2)Man(a1-6)]Man(b1-4)GlcNAc(b1-4)GlcNAc
# Procedure, shortened: as §1
# GlcNAc(b1-3)Gal = target: GlcNAc(b1-3)Gal
# Procedure, shortened: as §1
# [5] = target: GlcNAc(b1-3)Gal(b1-3)GalNAc
# Procedure, shortened: as §1
# GlcNAc(b1-3)Gal(b1-4)Glc = target: GlcNAc(b1-3)Gal(b1-4)Glc
# Procedure, shortened: as §1
# [6] = target: GlcNAc(b1-3)Gal(b1-4)GlcNAc
# Procedure, shortened: as §1
# [7] = target: GlcNAc(b1-3)Gal(b1-4)GlcNAc(b1-3)Gal(b1-4)GlcNAc
# Procedure, shortened: as §1
# GlcNAc(b1-3)GalNAc = target: GlcNAc(b1-3)GalNAc
# Procedure, shortened: as §1
# [8] = target: GlcNAc(b1-3)[GlcNAc(b1-4)][GlcNAc(b1-6)]GlcNAc
# Procedure, shortened: as §1
# [9] = target: GlcNAc(b1-3)[GlcNAc(b1-6)]Gal(b1-4)GlcNAc
# Procedure, shortened: as §1
# [10] = target: GlcNAc(b1-3)[GlcNAc(b1-6)]GlcNAc
# Procedure, shortened: as §1
# [11] = target: GlcNAc(b1-4)Gal(b1-4)GlcNAc
# Procedure, shortened: as §1
# [12] = target: GlcNAc(b1-4)GlcNAc(b1-4)GlcNAc
# Procedure, shortened: as §1
# [13] = target: GlcNAc(b1-4)GlcNAc(b1-4)GlcNAc(b1-4)GlcNAc(b1-4)GlcNAc
# Procedure, shortened: as §1
# [14] = target: GlcNAc(b1-4)GlcNAc(b1-4)GlcNAc(b1-4)GlcNAc(b1-4)GlcNAc(b1-4)GlcNAc
# Procedure, shortened: as §1
# [15] = target: GlcNAc(b1-4)[GlcNAc(b1-6)]GalNAc
# Procedure, shortened: as §1
# [16] = target: GlcNAc(b1-6)Gal(b1-4)GlcNAc
# Procedure, shortened: as §1
# GlcNAc(b1-6)GalNAc = target: GlcNAc(b1-6)GalNAc
# Procedure, shortened: as §1
# Kdn(a2-3)Gal(b1-3)GlcNAc = target: Kdn(a2-3)Gal(b1-3)GlcNAc
# Procedure, shortened: as §1
# Kdn(a2-3)Gal(b1-4)GlcNAc = target: Kdn(a2-3)Gal(b1-4)GlcNAc
# Procedure, shortened: as §1
# [17] = target: Man(a1-2)Man(a1-2)Man(a1-3)Man
# Procedure, shortened: as §1
# [18] = target: Man(a1-2)Man(a1-2)Man(a1-3)[Man(a1-2)Man(a1-3)[Man(a1-2)Man(a1-6)]Man(a1-6)]Man(b1-4)GlcNAc(b1-4)GlcNAc
# Procedure, shortened: as §1
# [19] = target: Man(a1-2)Man(a1-2)Man(a1-3)[Man(a1-2)Man(a1-6)[Man(a1-3)]Man(a1-6)]Man(b1-4)GlcNAc(b1-4)GlcNAc
# Procedure, shortened: as §1
# [20] = target: Man(a1-2)Man(a1-2)Man(a1-6)[Man(a1-3)]Man
# Procedure, shortened: as §1
# Man(a1-2)Man(a1-3)Man = target: Man(a1-2)Man(a1-3)Man
# Procedure, shortened: as §1
# [21] = target: Man(a1-2)Man(a1-3)[Man(a1-2)Man(a1-6)]Man
# Procedure, shortened: as §1
# [22] = target: Man(a1-2)Man(a1-3)[Man(a1-3)[Man(a1-6)]Man(a1-6)]Man(b1-4)GlcNAc(b1-4)GlcNAc
# Procedure, shortened: as §1
# [23] = target: Man(a1-2)Man(a1-3)[Man(a1-6)]Man(a1-6)[Man(a1-2)Man(a1-3)]Man(b1-4)GlcNAc(b1-4)GlcNAc
# Procedure, shortened: as §1
# Man(a1-3)[Man(a1-6)]Man = target: Man(a1-3)[Man(a1-6)]Man
# Procedure, shortened: as §1
# [24] = target: Man(a1-3)[Man(a1-6)]Man(a1-6)[Man(a1-3)]Man(b1-4)GlcNAc(b1-4)GlcNAc
# Procedure, shortened: as §1
# [25] = target: Man(a1-3)[Man(a1-6)]Man(b1-4)GlcNAc(b1-4)GlcNAc
# Procedure, shortened: as §1
binder,measurement,setting,value
"STA (Solanum tuberosum), Q9S8M0 (protein) NASPPSPSPLPYPQCGMKKGGGKCIKTGECCSIWGWCGTTNAYCSPGYCQKQCPGPYPEGRCGWQANGKSCPTGTGQCCSNGGWCGTTSDYCASKNCQSQCKLPSPPPPPPPPSPPPPSPPSPPPPSPPPPPPPSPPPPSPPPPSPSPPPPPASPPPPPPALPYPQCGIKKGGGKCIKTGECCSIWGWCGTTNAYCSPGYCQKQCPGPYPEGRCGWQANGKSCPTGTGHCCSNAGWCGTTSDYCAPVNCQAQCNTTTLTSPIKNRMRGIESFMLNVV",glycan array binding signal (z-score),Glc(a1-6)Glc(a1-6)Glc,-0.586
same,glycan array binding signal (z-score),Glc(b1-4)Glc,-0.594
same,glycan array binding signal (z-score),Glc(b1-6)Glc,-0.592
same,glycan array binding signal (z-score),GlcA(b1-3)Gal,-0.601
same,glycan array binding signal (z-score),GlcA(b1-6)Gal,-0.578
same,glycan array binding signal (z-score),[1],1.74
same,glycan array binding signal (z-score),[2],-0.577
same,glycan array binding signal (z-score),[3],-0.587
same,glycan array binding signal (z-score),[4],-0.577
same,glycan array binding signal (z-score),GlcNAc(b1-3)Gal,-0.595
same,glycan array binding signal (z-score),[5],-0.534
same,glycan array binding signal (z-score),GlcNAc(b1-3)Gal(b1-4)Glc,-0.601
same,glycan array binding signal (z-score),[6],0.717
same,glycan array binding signal (z-score),[7],1.68
same,glycan array binding signal (z-score),GlcNAc(b1-3)GalNAc,-0.585
same,glycan array binding signal (z-score),[8],-0.592
same,glycan array binding signal (z-score),[9],-0.59
same,glycan array binding signal (z-score),[10],-0.581
same,glycan array binding signal (z-score),[11],1.17
same,glycan array binding signal (z-score),[12],1.71
same,glycan array binding signal (z-score),[13],1.75
same,glycan array binding signal (z-score),[14],2.18
same,glycan array binding signal (z-score),[15],-0.583
same,glycan array binding signal (z-score),[16],-0.594
same,glycan array binding signal (z-score),GlcNAc(b1-6)GalNAc,-0.596
same,glycan array binding signal (z-score),Kdn(a2-3)Gal(b1-3)GlcNAc,-0.56
same,glycan array binding signal (z-score),Kdn(a2-3)Gal(b1-4)GlcNAc,1.65
same,glycan array binding signal (z-score),[17],-0.592
same,glycan array binding signal (z-score),[18],-0.447
same,glycan array binding signal (z-score),[19],-0.104
same,glycan array binding signal (z-score),[20],-0.593
same,glycan array binding signal (z-score),Man(a1-2)Man(a1-3)Man,-0.593
same,glycan array binding signal (z-score),[21],-0.586
same,glycan array binding signal (z-score),[22],0.864
same,glycan array binding signal (z-score),[23],-0.414
same,glycan array binding signal (z-score),Man(a1-3)[Man(a1-6)]Man,-0.595
same,glycan array binding signal (z-score),[24],-0.197
same,glycan array binding signal (z-score),[25],1.71
